# Some of the results follow. Results with a measured potency or affinity are listed apart.
# Tested on: Acinetobacter baumannii
# Settings: Concentration 32 ug.mL-1; ASSAY_TEST Inhibition of Bacterial Growth; detection method Absorption (OD600); MEDIA CAMHB; plate type 384well; NBS; CORNING #3640; time 18 hr
row,Compound,Inhibition [%]
1,N#CC1(Br)C(=NBr)Oc2c(ccc3ccccc23)C1c1ccccc1[N+](=O)[O-] (stereo not given),-3.43
2,N#CC1=C(N)Oc2ccc3ccccc3c2C1c1cccc([N+](=O)[O-])c1 (stereo not given),2.59
3,C#CCN(C)c1nc(OC)c(C#N)cc1C#N,8.02
4,CCC(CC)NNC(=O)c1c[nH]c2ccccc12.Cl,4.08
5,CNC(=O)c1cc2cc(OCc3ccccc3)ccc2n1C,11.27
6,COC(=O)C(NC(=O)c1ccccc1)=C(C)c1ccccc1,-5.55
7,COc1cc(Br)c(C=O)cc1OC,-1.23
8,COc1ccccc1C1C(C#N)=C(N)Oc2[nH]nc(C)c21 (stereo not given),3.04
9,N#Cc1c(N)nc(NCc2ccccc2)c(C#N)c1-c1ccccc1,12.81
10,COc1cccc(C2C(C#N)=C(N)Oc3c2ccc2ccccc32)c1 (stereo not given),0.48
11,CCC(Cc1ccccc1)NNC(=O)c1cc2ccccc2[nH]1 (stereo not given),-6.2
12,Cl.ClCCCC1CCNCC1,2.53
13,Cc1ccc(C=C2N=C(c3ccccc3)OC2=O)cc1,-5.87
14,O=C1C=C(Nc2ccccc2)C(=O)N1c1ccccc1,-1.13
15,Cl.N#Cc1cc(C#N)c(N2CCCC2)nc1Cl,10.36
16,NC(=O)N/N=C/c1c[nH]c2ccccc12,16.25
17,C#CCN(C)Cc1cc2cc(OC)ccc2n1C,13.79
18,COc1ccccc1C1C(C#N)=C(N)Oc2ccc3ccccc3c21 (stereo not given),6.33
19,O=Cc1cc2ccccc2nc1Cl,14.13
20,NNC(=O)CCc1c[nH]c2ccccc12,2.17
21,CN1C/C(=C\Br)n2c1c(C#N)cc(C#N)c2=O,0.22
22,C#CCN1CCc2nc3nc(N4CCCC4)c(C#N)cc3c(N)c2C1,10.98

row,Compound,Inhibition [%]
1,O=C(N/N=C/c1ccc([N+](=O)[O-])cc1)c1cc2ccccc2[nH]1,-4.46
2,C#CCN(C)Cc1cc2cc(OCCCC3CCN(Cc4ccc(C#N)cc4)CC3)ccc2n1C,2.4
3,CC(=O)O[C@H]1CC[C@H](NC(=O)c2ccccc2)CC1,15.82
4,O=C(NNCc1c[nH]c2ccccc12)c1cccc2ccccc12,-1.13
5,COc1ccc2cc(C3C4=C(CC(C)(C)CC4=O)Oc4nc5c(c(N)c43)CCCCC5)c(Cl)nc2c1 (stereo not given),-3.29
6,CC(=O)NCCc1ccccc1,9.72
7,N#Cc1c(N)nc(O)c(C#N)c1-c1ccccc1,-5.3
8,CCOC(=O)c1cc(C#N)c(N)nc1C,8.15
9,Nc1c2c(nc3nc4ccccc4nc13)CCCC2,14.71
10,CC1Cc2c(nc3c(c2N)CCCC3)NC1=O (stereo not given),9.25
11,C#CCNC.O=C(O)C(=O)O,7.06
12,CNCc1cc2cc(OC)ccc2n1C.Cl,-6.04
13,O=Cc1ccc(OCCO[N+](=O)[O-])cc1,14.4
14,N#Cc1c(Cl)nc(N2CCCCC2)c(C#N)c1-c1ccccc1,10.35
15,CC(C)(C)OC(=O)N[C@H]1CC[C@H](O)CC1,6.83
16,c1ccc(CNc2ncnc3c2cnn3-c2ccccc2)cc1,-10.8
17,COc1nc2nc3c(c(N)c2cc1C#N)CN(Cc1ccccc1)CC3,14.85
18,COc1ccc2cc(C3C(C(C)=O)=C(C)Oc4nc5c(c(N)c43)CCC5)c(Cl)nc2c1 (stereo not given),-5.64
19,COc1ccc2c(c1)cc(C(=O)Nc1ccccc1)n2C,9.71
20,COc1ccc2c(c1)cc(C(=O)O)n2C,2.22
21,CCCC(C)NNC(=O)Cc1c[nH]c2ccccc12 (stereo not given),-5.32
22,CC(C)(C)OC(=O)Nc1ccc(Cl)cn1,12.13

row,Compound,Inhibition [%]
1,Cl.OCCCC1CCNCC1,11.88
2,N#Cc1c(N)nc(N)c(C#N)c1-c1ccccc1,10.34
3,CCOC(=O)CCc1c[nH]c2ccccc12,-3.64
4,COc1cc(C2C(C#N)=C(N)Oc3ccc4ccccc4c32)ccc1O (stereo not given),9.15
5,COc1ccccc1C1c2ccc3ccccc3c2OC(=NBr)C1(Br)C#N (stereo not given),4.29
6,CCOC(=O)C1=C(C)NC(N)=C(C#N)C1c1ccc(OC)cc1 (stereo not given),13.46
7,COc1cccc(-c2c(C#N)c(=O)oc3c2ccc2ccccc23)c1,16.15
8,Cn1c(C(=O)O)cc2cc(OCCCC3CCN(Cc4ccccc4)CC3)ccc21,7.39
9,CC(=O)Oc1ccc(C=C2N=C(C)OC2=O)cc1,-3.67
10,N#Cc1cc(C#N)c(NCc2ccccc2)nc1N,-3.71
11,C#CCN(C)c1ncc(C#N)c(N)n1,11.11
12,COc1ccccc1C1c2c(ccc3ccccc23)OC(=N)C1(Br)C#N (stereo not given),4.2
13,COc1ccc(C2c3c(nc4c(c3N)CCCC4)Oc3ccc4ccccc4c32)c(OC)c1 (stereo not given),-10.58
14,O=C1NC(=S)N/C1=C\c1ccccc1,-2.24
15,N#Cc1cc(C#N)c(N2CCCC2)nc1N1CCCC1,-0.29
16,N#Cc1cc2c(N)c3c(nc2nc1Cl)CCCC3,0.13
17,CCOC(=O)C1=C(C)Oc2nc3c(c(N)c2C1c1ccc(O)c(OC)c1)CCC3 (stereo not given),12.14
18,COc1cccc(C=C2N=C(c3ccccc3)OC2=O)c1OC(C)=O,-1.43
19,O=C(Cc1c[nH]c2ccccc12)N/N=C/c1ccco1,-4.85
20,CCOC(=O)c1c(C)nc(NCC2CCN(Cc3ccccc3)CC2)c(C#N)c1-c1ccccc1,6.42
21,C/C=C(/C#N)C(=O)OC,-6.24
22,COc1cccc(C2C(C#N)=C(N)Oc3[nH]nc(C)c32)c1 (stereo not given),-7.6

row,Compound,Inhibition [%]
1,CNCc1cc2cc(OCc3ccccc3)ccc2n1C.Cl,-15.49
2,CCOC(=O)c1c(C)nc2nc3c(c(N)c2c1-c1ccccc1OC)CCCCC3,8.29
3,Cc1ccc(C(O)SNNc2ncnc3c2c(C)nn3-c2ccccc2)cc1 (stereo not given),6.96
4,COc1ccc(C2C(C#N)=C(N)Oc3c2ccc2ccccc32)cc1 (stereo not given),10.2
5,CC1=N/C(=C(\C)c2ccccc2)C(=O)O1,-4.05
6,C#CCn1c(N)c(C#N)c2cc(O)ccc21,0.68
7,C#CCN(C)c1cc(Cl)nc(N)n1,-12.57
8,Cc1ccc2nc(Cl)c(/C=N/NCc3ccccc3)cc2c1,2.93
9,Br.C#CCNCc1ccccc1,8.32
10,COc1ccc(C=C2N=C(c3ccccc3)OC2=O)cc1,4.3
11,CSC1=NC2(CC2c2ccccc2)C(=O)N1 (stereo not given),1.07
12,C=C1CN(C)c2c(C#N)c(-c3ccccc3)c(C#N)c(=O)n21,12.7
13,C#CCN(C)Cc1cc2cc(OCCCCC3CCN(Cc4ccccc4)CC3)ccc2n1C.Cl,4.02
14,COc1ccc(-c2cc(-c3cc4c(OC)ccc(OC)c4nc3Cl)cc(=O)[nH]2)cc1,5.76
15,O=C(N/N=C/Cc1ccccc1)c1cc2ccccc2[nH]1,-4.91
16,Cn1ccnc1C1C2=C(CC(C)(C)CC2=O)Oc2nc3c(c(N)c21)CCC3 (stereo not given),0.16
17,O=C1SC(SCc2ccccc2)=NC1=Cc1cccc(OCc2ccccc2)c1,6.57
18,O=C(Cc1c[nH]c2ccccc12)NN=Cc1ccccc1,-5.11
19,C#CCN1CCc2nc3nc(NC4CCN(Cc5ccccc5)CC4)c(C#N)cc3c(N)c2C1,7.08
20,N#Cc1c(N)nc(N2CCOCC2)c(C#N)c1-c1ccccc1,0.04
21,C1CNCCNCCNCCNC1,-3.14
22,CCOC(=O)C1=C(C)OC(N)=C(C#N)C1c1ccc(OC)c(OC)c1 (stereo not given),13.07

row,Compound,Inhibition [%]
1,COc1ccccc1C1C(C#N)=C(N)Oc2c1ccc1ccccc21 (stereo not given),-0.01
2,COc1ccccc1-c1c(C#N)c(=O)oc2c1ccc1ccccc12,2.05
3,Cc1ccc(C(O)SNNc2nc(C)nc3c2c(C)nn3-c2ccccc2)cc1 (stereo not given),0.66
4,N#CC1(Br)C(=NBr)Oc2c(ccc3ccccc23)C1c1ccc([N+](=O)[O-])cc1 (stereo not given),-0.55
5,Cc1nc2c(cc1C#N)c(N)nn2C,6.29
6,CCOC(=O)/C(=C\c1ccccc1)C(=O)c1ccccc1,0.94
7,Cn1ccnc1C1C2=C(CC(C)(C)CC2=O)Oc2nc3c(c(N)c21)CCCC3 (stereo not given),-5.19
8,Cc1cnc2ccc(Br)cn12,7.31
9,CCOC(=O)C1=C(C)Nc2nc3c(c(N)c2C1c1ccc([N+](=O)[O-])cc1)CCCC3.Cl (stereo not given),-16.8
10,CC(=O)Nc1nc(Cl)c(C#N)c(-c2ccccc2)c1C#N,4.16
11,N#Cc1c(N)nc(N2CCCCC2)c(C#N)c1-c1ccccc1,0.37
12,Cc1ccc(/C=C(\C#N)C(=O)c2ccccc2)cc1,9.44
13,CC(=O)/C=C/C1CCN(Cc2ccccc2)CC1,3.28
14,N#Cc1cc(C#N)c(NCCCC2CCN(Cc3ccccc3)CC2)nc1N,-7.2
15,CC(=O)N1CC(=O)NC1=S,-11.58
16,C#CCN1CCc2nc3nc(N(C)C)c(C#N)cc3c(N)c2C1,15.96
17,C#CCN(C)c1nc(NCCCCC2CCN(Cc3ccccc3)CC2)c(C#N)cc1C#N,-3.07
18,N#Cc1cc(C#N)c(NCCCCC2CCN(Cc3ccccc3)CC2)nc1N,-3.11
19,CC(C)(C)OC(=O)Nc1ccc(Br)cn1,-11.22
20,O=C1OC(c2ccccc2)=NC12CC2c1ccc([N+](=O)[O-])cc1 (stereo not given),-7.69
21,COc1ccc2cc(C3C4=C(CC(C)(C)CC4=O)Oc4nc5c(c(N)c43)CCCC5)c(Cl)nc2c1 (stereo not given),5.1
22,Cl.Nc1c2c(nc3c1C(c1ccccc1)c1c(ccc4ccccc14)O3)CCCC2 (stereo not given),-1.7
